Laboratory results as given in patent publication US20220339143A1, “TAK-925 FOR USE IN TREATING NARCOLEPSY” (Takeda Pharmaceutical Company Limited, priority 2019, published 2022).
This continues a long series; more values of the same kind are listed elsewhere.

What was measured:
Assay type in all cases: in vivo, human
[1] = Multiple-dose PK of intravenous Compound A in patients with NT1 (Cohorts B1, B2), plasma
Method: The purpose of the study was to evaluate the safety, tolerability, pharmacokinetics and pharmacodynamics of Compound A after multiple IV administration in patients with NT1. NT1 patients were evaluated in Cohort B1 and B2 (Table 19). Compound A or placebo were administered via IV infusion over 9 hours once daily for 7 days. A total of 13 patients with NT1 were treated with Compound A or placebo (4, 4, and 5 subjects in the placebo, Compound A 11 mg, and Compound A 44 mg groups, respectively). In this part, potential efficacy of Compound A was evaluated with MWT, ESS, KSS, night-time PSG (NPSG), cataplexy frequency assessment, and PGI-C as an exploratory PD assessment.
Blood samples used for PK analysis of Compound A was collected according to Table 20. See also FIG. 12 for whole schedules of study procedures.

[2] = Plasma concentrations in healthy subjects (Cohort 4)
Method: (§1) Pharmacokinetics: Concentrations of Compound A in plasma, and CSF, and pharmacokinetics parameters.
Following a single 9-hour IV infusion of 112 mg to healthy adult subjects in Cohort 4, Compound A plasma concentration-time profile was consistent with that observed in Cohort 1. At 6 hours after the start of infusion, mean ratio CSF/plasma concentration of Compound A was estimated to be about 2.8%.

[3] = Single dose PK in patients with narcolepsy (Cohorts 5, 6 and 7), plasma
Method: This study investigates (i) the safety and tolerability of Compound A (methyl (2R,3S)-3-((methylsulfonyl)amino)-2-(((cis-4-phenylcyclohexyl)oxy)methyl)piperidine-1-carboxylate) when a single dose given as a 9 hour continuous IV infusion is administered to healthy adults, healthy elderly subjects and patients with narcolepsy type 1 (NT1); (ii) the pharmacokinetics of Compound A when a single dose given as a 9 hour continuous IV infusion is administered to healthy adults, healthy elderly subjects and patients with narcolepsy type 1; and (iii) the pharmacodynamics (PD) effects of Compound A, primarily by evaluation of the sleep latency on MWT when a single dose given as a 9 hour continuous IV infusion is administered to patients with narcolepsy type 1.
In Part 2, NT1 patients received a single dose of Compound A or placebo administered as a continuous IV infusion over a 9-hour period during the day. A 40-minute Maintenance of Wakefulness Test (MWT) was conducted 4 times during the continuous IV infusion to assess effects on wakefulness in soporific conditions at 2, 4, 6 and 8 hours from start of infusion. Three cohorts of patients were enrolled (n=14 total).
as §1
On average, the time to reach the plateau appeared to be approximately 4 hours after the start of infusion. […] After switching off the IV infusion, Compound A plasma concentrations declined rapidly and in a biphasic manner with a mean terminal disposition phase t1/2z ranging approximately from 3.5 to 4.1 hours across the doses.

[4] = 5 mg, 0.17 hr After End of Infusion, NT1
[5] = 5 mg, 0.5 hr After End of Infusion, NT1
[6] = 5 mg, 2 hr After End of Infusion, NT1
[7] = 5 mg, Predose, NT1, single 9 h IV infusion
[8] = 11.2 mg, 0.17 hr After End of Infusion, NT1
[9] = 11.2 mg, 0.5 hr After End of Infusion, NT1
[10] = 11.2 mg, 2 hr After End of Infusion, NT1
[11] = 11.2 mg, Predose, NT1, single 9 h IV infusion
[12] = 44.8 mg, 0.17 hr After End of Infusion, NT1
[13] = 44.8 mg, 0.5 hr After End of Infusion, NT1
[14] = 44.8 mg, 2 hr After End of Infusion, NT1
[15] = 44.8 mg, Predose, NT1, single 9 h IV infusion

With `COC(=O)N1CCC[C@H](NS(C)(=O)=O)[C@@H]1CO[C@H]1CC[C@@H](c2ccccc2)CC1` [Compound A, methyl (2R,3S)-3-((methylsulfonyl)amino)-2-(((cis-4-phenylcyclohexyl)oxy)methyl)piperidine-1-carboxylate] as the molecule, how does the “Ceoi, Geo Mean” value ([1]; 11 mg, Day 1) read?
The value was 17.39 ng/mL.

And the “Ceoi, Geo Mean” value ([1]; 11 mg, Day 7)?
Its value is 17.68 ng/mL.

And the “Ceoi, Mean” value ([1]; 11 mg, Day 7)?
The value was 17.75 ng/mL.

And the “Ceoi, Mean” value ([1]; 44 mg, Day 1)?
The value was 72.04 ng/mL.

What about the “Ceoi, Geo Mean” value ([1]; 44 mg, Day 7) of the same molecule?
The value was 73.20 ng/mL.

What about the “Ceoi, Mean” value ([1]; 44 mg, Day 7) of the same molecule?
The value was 74.44 ng/mL.

And the Plasma concentration ([2]; 0.17 hr After End of Infusion, Mean)?
The Plasma concentration was 113.0 ng/mL.

What about the Plasma concentration ([2]; 0.17 hr After End of Infusion, Median) of the same molecule?
The Plasma concentration was 110.0 ng/mL.

What about the Plasma concentration ([2]; 0.33 hr After End of Infusion, Mean) of the same molecule?
Its Plasma concentration is 92.68 ng/mL.

What about the Plasma concentration ([2]; 0.33 hr After End of Infusion, Median) of the same molecule?
Its Plasma concentration is 94.70 ng/mL.

And the Plasma concentration ([2]; 0.5 hr After End of Infusion, Mean)?
Its Plasma concentration is 85.58 ng/mL.

And the Plasma concentration ([2]; 0.5 hr After End of Infusion, Median)?
The Plasma concentration was 88.85 ng/mL.

What about the Plasma concentration ([2]; 0.75 hr After End of Infusion, Mean) of the same molecule?
The Plasma concentration was 72.88 ng/mL.

And the Plasma concentration ([2]; 0.75 hr After End of Infusion, Median)?
Its Plasma concentration is 73.60 ng/mL.

And the Plasma concentration ([2]; 1 hr After End of Infusion, Mean)?
Its Plasma concentration is 60.93 ng/mL.

And the Plasma concentration ([2]; 1 hr After End of Infusion, Median)?
The Plasma concentration was 61.15 ng/mL.

And the Plasma concentration ([2]; 1.5 hr After End of Infusions, Mean)?
Its Plasma concentration is 46.63 ng/mL.

And the Plasma concentration ([2]; 1.5 hr After End of Infusions, Median)?
The Plasma concentration was 45.80 ng/mL.

And the Plasma concentration ([2]; 2 hr After End of Infusions, Mean)?
The Plasma concentration was 30.58 ng/mL.

What about the Plasma concentration ([2]; 2 hr After End of Infusions, Median) of the same molecule?
The Plasma concentration was 31.25 ng/mL.

What about the Plasma concentration ([2]; 3 hr After End of Infusions, Mean) of the same molecule?
Its Plasma concentration is 22.13 ng/mL.

And the Plasma concentration ([2]; 3 hr After End of Infusions, Median)?
The Plasma concentration was 22.25 ng/mL.

And the Plasma concentration ([2]; 4 hr After End of Infusions, Mean)?
Its Plasma concentration is 16.33 ng/mL.

And the Plasma concentration ([2]; 4 hr After End of Infusions, Median)?
The Plasma concentration was 16.35 ng/mL.

And the Plasma concentration ([2]; 6 hr After End of Infusions, Mean)?
Its Plasma concentration is 7.968 ng/mL.

What about the Plasma concentration ([2]; 6 hr After End of Infusions, Median) of the same molecule?
The Plasma concentration was 7.980 ng/mL.

What about the Plasma concentration ([2]; 10 hr After End of Infusions, Mean) of the same molecule?
The Plasma concentration was 5.365 ng/mL.

And the Plasma concentration ([2]; 10 hr After End of Infusions, Median)?
Its Plasma concentration is 4.240 ng/mL.

And the Plasma concentration ([2]; 15 hr After End of Infusions, Mean)?
The Plasma concentration was 2.445 ng/mL.

What about the Plasma concentration ([2]; 15 hr After End of Infusions, Median) of the same molecule?
Its Plasma concentration is 1.380 ng/mL.

What about the Plasma concentration ([2]; Predose, Mean) of the same molecule?
Its Plasma concentration is 0.000 ng/mL.

And the Plasma concentration ([2]; Predose, Median)?
The Plasma concentration was 0.000 ng/mL.

And the “Plasma concentration, Mean” value [3, 4]?
Its value is 5.888 ng/mL.

What about the “Plasma concentration, Median” value [3, 4] of the same molecule?
Its value is 5.520 ng/mL.

And the “Plasma concentration, Mean” value [3, 5]?
The value was 4.424 ng/mL.

And the “Plasma concentration, Median” value [3, 5]?
The value was 3.990 ng/mL.

What about the “Plasma concentration, Mean” value [3, 6] of the same molecule?
Its value is 2.358 ng/mL.

And the “Plasma concentration, Median” value [3, 6]?
Its value is 2.260 ng/mL.

What about the “Plasma concentration, Mean” value ([3]; 5 mg, At Bed Time, NT1) of the same molecule?
Its value is 1.071 ng/mL.

And the “Plasma concentration, Median” value ([3]; 5 mg, At Bed Time, NT1)?
Its value is 0.8550 ng/mL.

And the “Plasma concentration, Mean” value [3, 7]?
The value was 0.000 ng/mL.

What about the “Plasma concentration, Median” value [3, 7] of the same molecule?
The value was 0.000 ng/mL.

And the “Plasma concentration, Mean” value [3, 8]?
Its value is 12.38 ng/mL.

And the “Plasma concentration, Median” value [3, 8]?
Its value is 11.80 ng/mL.

What about the “Plasma concentration, Mean” value [3, 9] of the same molecule?
The value was 9.545 ng/mL.

And the “Plasma concentration, Median” value [3, 9]?
The value was 9.210 ng/mL.

And the “Plasma concentration, Mean” value [3, 10]?
The value was 4.838 ng/mL.

And the “Plasma concentration, Median” value [3, 10]?
The value was 5.070 ng/mL.

And the “Plasma concentration, Mean” value ([3]; 11.2 mg, At Bed Time, NT1)?
The value was 1.923 ng/mL.

And the “Plasma concentration, Median” value ([3]; 11.2 mg, At Bed Time, NT1)?
Its value is 1.890 ng/mL.

What about the “Plasma concentration, Mean” value [3, 11] of the same molecule?
Its value is 0.000 ng/mL.

And the “Plasma concentration, Median” value [3, 11]?
Its value is 0.000 ng/mL.

And the “Plasma concentration, Mean” value [3, 12]?
Its value is 68.70 ng/mL.

And the “Plasma concentration, Median” value [3, 12]?
The value was 64.15 ng/mL.

And the “Plasma concentration, Mean” value [3, 13]?
Its value is 53.93 ng/mL.

And the “Plasma concentration, Median” value [3, 13]?
Its value is 52.50 ng/mL.

What about the “Plasma concentration, Mean” value [3, 14] of the same molecule?
The value was 25.85 ng/mL.

And the “Plasma concentration, Median” value [3, 14]?
Its value is 26.85 ng/mL.

What about the “Plasma concentration, Mean” value ([3]; 44.8 mg, At Bed Time, NT1) of the same molecule?
The value was 11.37 ng/mL.

And the “Plasma concentration, Median” value ([3]; 44.8 mg, At Bed Time, NT1)?
Its value is 10.36 ng/mL.

What about the “Plasma concentration, Mean” value [3, 15] of the same molecule?
Its value is 0.000 ng/mL.

And the “Plasma concentration, Median” value [3, 15]?
The value was 0.000 ng/mL.
